According to paper PMC5892938:
Some of the results follow. At the low end of the ranking the order means little.

Molecular target: GST-SBP-SLBP (stem-loop binding protein) (UniProt Q14493)
Test: targeted RNA Bind-n-Seq;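 also: DESeq read counts versus GST-SBP nonspecific binding control pulldown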
Conditions: RBNS binding buffer: 25 mM Tris pH 7.5, 150 mM KCl, 3 mM MgCl2, 0.1% Tween, 0.5 mg/mL BSA, 1 mM DTT; 27 nM protein, 750 pM RNA pool; temperature not stated; high values mean tight binding

Row | Sequence | binding signal (log2 fold change)
1 | GGUCACGUCUCAAUCAACUCAUCUUCAGGAGUUUCCUCCUGCAAUCUCAACAGCUCGCAGUCAAG | 0.0719
2 | GGUCACGUCUCAAUCAACUCUUCCUCAGGAGUUUACUCCUGCAAUCUCAACAGCUCGCAGUCAAG | -0.0411
3 | GGUCACGUCUCAAUCAACUCAAUCUCAGGAGUUUCCUCCUGCUAUUUCAACAGCUCGCAGUCAAG | -0.0837
4 | GGUCACGUCUCAAUCAACUCACUAGAGGGGGGGAAAACCCCUUUGCCCUCAUCAUCAACAGCUCGCAGUCAAG | 0.283
5 | GGUCACGUCUCAAUCAACUCAAAAGAGGGGGGGAAAACCCCUUUACCCUCCACCUCAACAGCUCGCAGUCAAG | 0.0649
6 | GGUCACGUCUCAAUCAACUCAACUUCAGGAGUUUGCUCCUGUUAAUUCAACAGCUCGCAGUCAAG | 0.0511
7 | GGUCACGUCUCAAUCAACUCAAUCCCCAGGGAAACCCCUGGUUAUCUCAACAGCUCGCAGUCAAG | -0.17
8 | GGUCACGUCUCAAUCAACUCUAAAGAGGGGGGGAAAACCCCUUUGCCCUCACAAUCAACAGCUCGCAGUCAAG | 0.134
9 | GGUCACGUCUCAAUCAACUCUAUCCCAGGAGUUUACUCCUGUUAACUCAACAGCUCGCAGUCAAG | 0.16
10 | GGUCACGUCUCAAUCAACUCUUUAGAGGGGGGGAAAACCCCUUUGCCCUCAUUUUCAACAGCUCGCAGUCAAG | -0.0931
11 | GGUCACGUCUCAAUCAACUCCCAAGAGGGGGGGAAAACCCCUUUACCCUCCGUUUCAACAGCUCGCAGUCAAG | -0.286
12 | GGUCACGUCUCAAUCAACUCUUACGAGGGGGGGAAAACCCCUUUGCCCUCAAAAUCAACAGCUCGCAGUCAAG | -0.694
13 | GGUCACGUCUCAAUCAACUCUAUGUCAGGAGUUUCCUCCUGUAAAUUCAACAGCUCGCAGUCAAG | -0.0191
14 | GGUCACGUCUCAAUCAACUCACUAGAGGGGGGGAAAACCCCUUUACCCUCCAAAUCAACAGCUCGCAGUCAAG | -0.223
15 | GGUCACGUCUCAAUCAACUCUACUCCAGGAGUUUGCUCCUGCAUAUUCAACAGCUCGCAGUCAAG | 0.137
16 | GGUCACGUCUCAAUCAACUCUUUCCCAGGAGUUUACUCCUGUAUAUUCAACAGCUCGCAGUCAAG | 0.0568
17 | GGUCACGUCUCAAUCAACUCAUGUCCAGGAGUUUUCUCCUGCAAAUUCAACAGCUCGCAGUCAAG | -0.136
18 | GGUCACGUCUCAAUCAACUCAAUCGAGGGGGGGAAAACCCCUUUACCCUCAUUAUCAACAGCUCGCAGUCAAG | -0.0662
19 | GGUCACGUCUCAAUCAACUCUUCCCCCAGGGAAACCCCUGGCAUUUUCAACAGCUCGCAGUCAAG | -0.0277
20 | GGUCACGUCUCAAUCAACUCUUUCUCCAGGGAAAACCCUGGCAUACUCAACAGCUCGCAGUCAAG | 0.246
21 | GGUCACGUCUCAAUCAACUCAUCCCCCAGGGAAACCCCUGGCUUUCUCAACAGCUCGCAGUCAAG | -0.17
22 | GGUCACGUCUCAAUCAACUCAGUUCCAGGAGUUUUCUCCUGUUUUUUCAACAGCUCGCAGUCAAG | -0.224
23 | GGUCACGUCUCAAUCAACUCAUUCUCAGGAGUUUACUCCUGCUAAUUCAACAGCUCGCAGUCAAG | 0.0465
24 | GGUCACGUCUCAAUCAACUCAAUUCCAGGAGUUUUCUCCUGUAUUUUCAACAGCUCGCAGUCAAG | -0.0528
25 | GGUCACGUCUCAAUCAACUCAUGUCCCAGGGAAAUCCCUGGUUUUUUCAACAGCUCGCAGUCAAG | -0.427

Row | Sequence | binding signal (log2 fold change)
26 | GGUCACGUCUCAAUCAACUCAUUUUCAGGAGUUUGCUCCUGUUUUCUCAACAGCUCGCAGUCAAG | 0.115
27 | GGUCACGUCUCAAUCAACUCUAUAGAGGGGGGGAAAACCCCUUUGCCCUCAUCUUCAACAGCUCGCAGUCAAG | 0.0424
28 | GGUCACGUCUCAAUCAACUCUCUAGAGGGGGGGAAAACCCCUUUACCCUCGUCAUCAACAGCUCGCAGUCAAG | -0.0542
29 | GGUCACGUCUCAAUCAACUCGUCUUCAGGAGUUUACUCCUGUAUUUUCAACAGCUCGCAGUCAAG | 0.167
30 | GGUCACGUCUCAAUCAACUCUCUAGAGGGGGGGAAAACCCCUUUACCCUCACCAUCAACAGCUCGCAGUCAAG | 0.354
31 | GGUCACGUCUCAAUCAACUCGUCUUCAGGAGUUUUCUCCUGCUUAUUCAACAGCUCGCAGUCAAG | -0.116
32 | GGUCACGUCUCAAUCAACUCAUCUUCAGGAGUUUUCUCCUGCAUAGUCAACAGCUCGCAGUCAAG | 0.197
33 | GGUCACGUCUCAAUCAACUCAUUCUCCAGGGAAAACCCUGGUAUUUUCAACAGCUCGCAGUCAAG | 0.206
34 | GGUCACGUCUCAAUCAACUCAAUCCCAGGAGUUUACUCCUGCUUUCUCAACAGCUCGCAGUCAAG | -0.178
35 | GGUCACGUCUCAAUCAACUCAUUCCCCAGGGAAAGCCCUGGUUAUCUCAACAGCUCGCAGUCAAG | -0.0592
36 | GGUCACGUCUCAAUCAACUCACACGAGGGGGGGAAAACCCCUUUGCCCUCAUUAUCAACAGCUCGCAGUCAAG | -0.504
37 | GGUCACGUCUCAAUCAACUCUACUCCAGGAGUUUCCUCCUGUUUUCUCAACAGCUCGCAGUCAAG | 0.0612
38 | GGUCACGUCUCAAUCAACUCUAUCUCAGGAGUUUACUCCUGUUAAUUCAACAGCUCGCAGUCAAG | 0.00698
39 | GGUCACGUCUCAAUCAACUCAUUCGAGGGGGGGAAAACCCCUUUACCCUCAUCUUCAACAGCUCGCAGUCAAG | -0.316
40 | GGUCACGUCUCAAUCAACUCAUUUUCAGGAGUUUCCUCCUGCUAUCUCAACAGCUCGCAGUCAAG | 0.0173
41 | GGUCACGUCUCAAUCAACUCAUUCUCAGGAGUUUACUCCUGCUUAUUCAACAGCUCGCAGUCAAG | 0.0387
42 | GGUCACGUCUCAAUCAACUCAUUCUCCAGGGAAAGCCCUGGUUUACUCAACAGCUCGCAGUCAAG | 0.212
43 | GGUCACGUCUCAAUCAACUCAUUCUCAGGAGUUUCCUCCUGCAAACUCAACAGCUCGCAGUCAAG | -0.103
44 | GGUCACGUCUCAAUCAACUCUUCUUCAGGAGUUUCCUCCUGUUAACUCAACAGCUCGCAGUCAAG | 0.08
45 | GGUCACGUCUCAAUCAACUCUAGUCCCAGGGAAAACCCUGGUUUUUUCAACAGCUCGCAGUCAAG | -0.315
46 | GGUCACGUCUCAAUCAACUCAUCGCCAGGAGUUUGCUCCUGUAAUUUCAACAGCUCGCAGUCAAG | -0.143
47 | GGUCACGUCUCAAUCAACUCAACUUCAGGAGUUUACUCCUGUAAAUUCAACAGCUCGCAGUCAAG | 0.141
48 | GGUCACGUCUCAAUCAACUCUAUCUCCAGGGAAACCCCUGGCUAUUUCAACAGCUCGCAGUCAAG | 0.27
49 | GGUCACGUCUCAAUCAACUCUUCUUCAGGAGUUUACUCCUGUUAUGUCAACAGCUCGCAGUCAAG | 0.0922
50 | GGUCACGUCUCAAUCAACUCAUCUCCCAGGGAAAUCCCUGGCAAUUUCAACAGCUCGCAGUCAAG | 0.0538

Row | Sequence | binding signal (log2 fold change)
51 | GGUCACGUCUCAAUCAACUCCAUGGAGGGGGGGAAAACCCCUUUACCCUCAUCAUCAACAGCUCGCAGUCAAG | 0.0796
52 | GGUCACGUCUCAAUCAACUCCUACGAGGGGGGGAAAACCCCUUUACCCUCUUCUUCAACAGCUCGCAGUCAAG | -0.356
53 | GGUCACGUCUCAAUCAACUCUUCCGCAGGAGUUUACUCCUGGUAUUUCAACAGCUCGCAGUCAAG | 0.0976
54 | GGUCACGUCUCAAUCAACUCUAGUCCAGGAGUUUUCUCCUGUAUAUUCAACAGCUCGCAGUCAAG | -0.143
55 | GGUCACGUCUCAAUCAACUCUUUCCCCAGGGAAACCCCUGGCAAAUUCAACAGCUCGCAGUCAAG | -0.126
56 | GGUCACGUCUCAAUCAACUCAUCGUCAGGAGUUUUCUCCUGCAUACUCAACAGCUCGCAGUCAAG | 0.146
57 | GGUCACGUCUCAAUCAACUCUAUUUCAGGAGUUUCCUCCUGCUUUCUCAACAGCUCGCAGUCAAG | -0.074
58 | GGUCACGUCUCAAUCAACUCAAUCCCCAGGGAAACCCCUGGCUAACUCAACAGCUCGCAGUCAAG | 0.0882
59 | GGUCACGUCUCAAUCAACUCAUUUUCCAGGGAAAGCCCUGGUAUAUUCAACAGCUCGCAGUCAAG | 0.053
60 | GGUCACGUCUCAAUCAACUCUUCUCCCAGGGAAAACCCUGGUAAUCUCAACAGCUCGCAGUCAAG | -0.105
61 | GGUCACGUCUCAAUCAACUCAUUUCCAGGAGUUUUCUCCUGUUUAUUCAACAGCUCGCAGUCAAG | 0.215
62 | GGUCACGUCUCAAUCAACUCAUUUUCAGGAGUUUACUCCUGUAAUCUCAACAGCUCGCAGUCAAG | 0.238
63 | GGUCACGUCUCAAUCAACUCUUCUUCAGGAGUUUUCUCCUGUUUUGUCAACAGCUCGCAGUCAAG | 0.1
64 | GGUCACGUCUCAAUCAACUCAUCGUCCAGGGAAAACCCUGGUUUUUUCAACAGCUCGCAGUCAAG | 0.0579
65 | GGUCACGUCUCAAUCAACUCACUAGAGGGGGGGAAAACCCCUUUGCCCUCAUUAUCAACAGCUCGCAGUCAAG | 0.0849
66 | GGUCACGUCUCAAUCAACUCAAUCCCCAGGGAAAUCCCUGGCUUACUCAACAGCUCGCAGUCAAG | 0.371
67 | GGUCACGUCUCAAUCAACUCAUUCUCCAGGGAAACCCCUGGUAUAUUCAACAGCUCGCAGUCAAG | -0.194
68 | GGUCACGUCUCAAUCAACUCUUCAGAGGGGGGGAAAACCCCUUUACCCUCCACAUCAACAGCUCGCAGUCAAG | 0.116
69 | GGUCACGUCUCAAUCAACUCCUCAGAGGGGGGGAAAACCCCUUUACCCUCACCAUCAACAGCUCGCAGUCAAG | -0.0838
70 | GGUCACGUCUCAAUCAACUCAUCCCCAGGAGUUUGCUCCUGCAAUUUCAACAGCUCGCAGUCAAG | 0.0952
71 | GGUCACGUCUCAAUCAACUCUAUUUCCAGGGAAACCCCUGGCGUAUUCAACAGCUCGCAGUCAAG | -0.0433
72 | GGUCACGUCUCAAUCAACUCUUCGUCCAGGGAAAUCCCUGGCUUAUUCAACAGCUCGCAGUCAAG | -0.0273
73 | GGUCACGUCUCAAUCAACUCUAUUCCCAGGGAAAUCCCUGGUUAUUUCAACAGCUCGCAGUCAAG | 0.0238
74 | GGUCACGUCUCAAUCAACUCUAUUCCAGGAGUUUCCUCCUGUAUUUUCAACAGCUCGCAGUCAAG | 0.0998
